Source: PubChem BioAssay AID1508623 (National Center for Advancing Translational Sciences (NCATS), 2021)
The whole screen tested about 48,000 compounds, of which about 450 (0.94%) were called active. Inconclusive results (about 19%) are left out. Calls come from the whole dose curve; as a rule, active = well fitted inhibition curve with a large enough effect; inconclusive = small, poorly fitted or top-dose-only effect; inactive = no such curve, though single readings can be large or run the other way. The list shows a part of the results.

Test: Primary qHTS for Identification of Small Molecule Inhibitors of Huntingtin Promoter Activity; note: nearly all actives have a fitted effect of over 50% in size
Conditions: HEK293 HTT promoter firefly luciferase reporter (activity 0% = vehicle and -100% = no light), 24 h; series mostly up to 57.5 µM; activity change, negative = inhibition: at the top concentration
Method in brief: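 Quantitative HTS used concentration series of up to 57.5 uM final on HEK293 luciferase reporter cells, 24 h at 37 degrees C. Readout was Dual-Glo firefly luminescence.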
Potency is the fitted concentration of half-maximal effect.

SMILES	activity change, negative = inhibition	Potency
CCOc1ccccc1CNCc1c(C(=O)O)n(Cc2ccc(F)cc2)c2cc(C)ccc12	inactive: -7.92%	–
CC(=O)N(CC(O)CN(C(C)=O)c1c(I)c(C(=O)NCC(O)CO)c(I)c(C(=O)NCC(O)CO)c1I)c1c(I)c(C(=O)NCC(O)CO)c(I)c(C(=O)NCC(O)CO)c1I (stereo not given)	inactive: 3.27%	–
CN1[C@H]2CC[C@H]1CC(OC(=O)c1c[nH]c3ccccc13)C2 (stereo not given in full)	inactive: -12.7%	–
CCn1cc(C(=O)NCCc2ccc(C)cc2)c(=O)c2cc(S(=O)(=O)N3CCc4ccccc4C3)ccc21	inactive: -1.94%	–
Cc1ccc(-c2noc(-c3cc(-c4ccc(F)cc4)n[nH]3)n2)cc1	inactive: -11.6%	–
O=C(Nc1c(-c2ccccc2)nc2ccccn12)c1ccccc1F	inactive: -16.3%	–
Cc1cc(C)cc(NC(=O)CNS(=O)(=O)c2ccc3nc(C)sc3c2)c1	inactive: -15.7%	–
CN1C(=O)Cc2cc(S(=O)(=O)CCC(=O)Nc3ccc(OC(F)(F)F)cc3)ccc21	inactive: -27.6%	–
Cc1ccc(NC(=O)CN2C(=O)c3ccccc3Sc3ccc(C(=O)N4CCOCC4)cc32)c(Cl)c1	inactive: -29%	–
CCc1cc2c(cc3c(=O)n(CC(=O)NCc4cc(Br)ccc4OC)ncn32)s1	inactive: -3.11%	–
CCN(CC)S(=O)(=O)c1ccc2oc(C(=O)Nc3cc(C)ccc3OC)c(C)c2c1	inactive: -8.62%	–
CCCCNC(=O)CN1C(=O)COc2ccc(S(=O)(=O)N3CCCCCC3)cc21	inactive: -11.5%	–
CCOc1ccc(-c2nnc(SCC(=O)c3ccccc3)n2-c2ccccc2)cc1	inactive: -5.79%	–
COC(=O)CNC(=O)N1CCN(S(=O)(=O)c2ccc3c(ccn3C)c2)CC1	inactive: -34.8%	–
COc1ccc(C(=O)Nc2ccc3oc(-c4ccc5ccccc5c4)nc3c2)cc1Br	inactive: -4.4%	–
Cn1cccc1-c1cc2n(n1)CCC(=O)N2CCCC(=O)NCc1ccc(F)cc1	inactive: 15.7%	–
Cc1cc(=O)[nH]c2nnc(SCc3ccc(C(F)(F)F)cc3)n12	inactive: -11.6%	–
Cc1ccc(NC(=O)c2ncoc2-c2ccco2)cc1Cl	inactive: 47.8%	–
Cc1cccc(C)c1NC(=O)Cn1c(SCC(=O)NCc2ccccc2)nc2ccccc21	inactive: 0%	–
COc1ccc2cc(CNc3ccc(OC)c(OC)c3)c(=O)n(CC(=O)Nc3ccccc3F)c2c1	inactive: -24.3%	–
CCOC(=O)c1[nH]c(C)c(CCC(=O)Nc2cccc(SC)c2)c1C	inactive: -31.7%	–
O=C(Nc1cc2ccc(O)cc2oc1=O)c1ccccc1	inactive: 22.5%	–
CC(C)CCNC(=O)c1ccc2c(c1)N(Cc1ccccc1F)C(=O)c1ccccc1S2(=O)=O	inactive: -21.7%	–
Fc1cccc(Cl)c1CNCCSc1nnnn1-c1ccccc1	inactive: -9.48%	–

SMILES	activity change, negative = inhibition	Potency
COc1cccc(C(=O)N(Cc2ccco2)c2ccccn2)c1	inactive: -13%	–
O=C(CNC(=O)c1ccccc1F)OCc1cc(=O)n2nc(C3CCCCC3)sc2n1	inactive: 6.37%	–
CCOc1cccc(C(=O)Nc2nnc(S(=O)(=O)N(C)c3ccc(C)cc3)s2)c1	inactive: -25.3%	–
COc1ccc(S(=O)(=O)N(CC(=O)Nc2ccc(OC)cc2OC)c2ccc(Cl)cc2)cc1	inactive: -29.8%	–
CCN1C(=O)c2ccccc2S(=O)c2ccc(C(=O)NCc3ccc(C)cc3)cc21 (stereo not given)	inactive: -23.6%	–
Cc1c(CNC2CCC(C)CC2)c(C(=O)O)c(C)n1Cc1ccccc1F (stereo not given)	inactive: -12.5%	–
COc1ccc(/C=C(/C#N)c2nc(-c3cc4ccccc4oc3=O)cs2)cc1	inactive: -2.19%	–
CCC1CN(C(=O)Nc2ccccc2C(F)(F)F)c2ccccc2O1 (stereo not given)	inactive: 0.199%	–
CCOc1ccccc1C1C(C(N)=O)=C(C)Nc2nc(-c3ccccc3Cl)nn21 (stereo not given)	inactive: 2.53%	–
Cc1cccc(N2CC(c3nc4ccc(C)cc4[nH]3)CC2=O)c1 (stereo not given)	inactive: -5.44%	–
O=C(NC1(C(F)(F)F)N=C(c2ccccc2)N(C2CCCCC2)C1=O)c1ccc(F)cc1 (stereo not given)	inactive: -5.09%	–
Cc1cc(C)n(CCc2nc3c4ccccc4nc(SCc4ccc(Cl)cc4)n3n2)n1	inactive: 0%	–
CCOc1ccc(NC(=O)CC2C(=O)N(c3ccc(C)cc3)C(=O)N2C2CCCCC2)cc1 (stereo not given)	inactive: 12.7%	–
Cn1ccc2cc(S(=O)(=O)N3CCCC(C(=O)NCc4ccc(F)cc4)C3)ccc21 (stereo not given)	inactive: -30.6%	–
C=CCSCC1Nc2cc(Cl)c(S(N)(=O)=O)cc2S(=O)(=O)N1 (stereo not given)	inactive: -0.233%	–
Cc1cc(O)c2c(O)c3c(O)cccc3cc2c1	inactive: -4.15%	–
COC(=O)c1ccc(C2C=C(c3ccc(Cl)cc3)Nc3nc4ccccc4n32)cc1 (stereo not given)	inactive: 22.7%	–
CCOc1ccccc1-c1noc(CCCC(=O)Nc2cccc(C(F)(F)F)c2)n1	inactive: -32.2%	–
N#Cc1cccc(NC(=O)C2CCN(c3cnccn3)CC2)c1	inactive: -22.7%	–
CC(=O)Nc1ccc(NC(=O)c2cc3c(=O)n(Cc4cccnc4)ccc3nc2C)cc1	inactive: 1.79%	–
Cc1ccc(-n2nc3cc(C)c(NC(=O)COc4ccccc4)cc3n2)cc1	inactive: 24%	–
Cc1ccc(C(=O)NCC(=O)OCc2cc(=O)n3c(C)csc3n2)cc1	inactive: -2.43%	–
CCOC(=O)CCN(c1ccccc1)S(=O)(=O)c1cc(-c2cc(C)no2)ccc1C	inactive: -27.6%	–
CCc1cc2c(cc3c(=O)n(CC(=O)NC4CCCCC4)nc(CC)n32)s1	inactive: 0.245%	–

SMILES	activity change, negative = inhibition	Potency
Cc1cc(C)c2oc(C(=O)Nc3c(C)n(C)n(-c4ccccc4)c3=O)cc(=O)c2c1	inactive: -3.78%	–
CC(=O)N1CCc2c(sc3c2c(=O)n(-c2ccccc2C)c(=O)n3CC(=O)c2ccccc2)C1	inactive: -16.8%	–
Cc1ccc(C)c(NC(=O)Cn2c(=O)n(-c3ccccc3C)c(=O)c3c2c2cc(C)ccc2n3C)c1	inactive: -15.8%	–
CC(C)n1cc2c(c1-c1ccccc1Cl)c(=O)n(C)c(=O)n2C	inactive: -11.9%	–
Cc1cccc(C(=O)Nc2cccc(OCc3cc(=O)n4cc(C)sc4n3)c2)c1	inactive: 12.3%	–
Cc1ccc(-n2cc3c(c2-c2ccccc2Br)c(=O)n(C)c(=O)n3C)cc1N	inactive: -7.22%	–
COc1ccccc1N1CCN(CCCNC(=O)c2nnc(Cc3c(F)cccc3Cl)o2)CC1	inactive: -25.6%	–
COc1ccccc1C(=O)Nc1c(C(=O)N2CCN(c3ccc(F)cc3)CC2)oc2ccccc12	inactive: -11.8%	–
CCN1CCN(CCCNC(=O)Cn2c(-c3cccs3)cc3ccccc32)CC1	inactive: -19.3%	–
Cc1ccc2c(=O)cc(C(=O)N(Cc3ccccc3Cl)C3CCS(=O)(=O)C3)oc2c1 (stereo not given)	inactive: 19%	–
COc1ccc(-c2cc(-c3ccccc3)c(C#N)c(SCC(O)CS(=O)(=O)Cc3ccccc3)n2)cc1 (stereo not given)	inactive: -25.8%	–
CC(O)CNC(=O)C(=O)Nc1c2c(nn1-c1ccc(Cl)cc1)CSC2 (stereo not given)	inactive: -21.6%	–
COC(=O)c1ccc(NC(=O)CCc2c(C)nn(-c3ccc(N4CCOCC4)nn3)c2C)cc1	inactive: -5.26%	–
O=C(Nc1ccc(F)cc1)c1ccc(Cn2nc(N3CCN(c4ccccc4)CC3)ccc2=O)o1	–	active: 14.1 µM
COc1ccccc1-c1nc2c(c(SCc3ccc(F)cc3Cl)n1)Cc1c(CO)cnc(C)c1O2	inactive: -4.84%	–
CCc1cccc(NC(=O)Cn2c(=O)c(C(F)(F)F)nc3ccccc32)c1	inactive: -5.89%	–
Cc1cccc(CSc2nc3cc(C(=O)NC4CCCC4)ccc3c(=O)n2Cc2ccccc2)c1	inactive: 5.26%	–
NC(=O)c1cccc(N)c1	inactive: 6.47%	–
Cc1cc(C)c2c(=O)cc(C(=O)Nc3nc4ccc(F)cc4s3)oc2c1	inactive: 17%	–
Cc1ccc(C(=O)Oc2ccc(C(O)CNC(C)(C)C)cc2OC(=O)c2ccc(C)cc2)cc1 (stereo not given)	inactive: 1.57%	–
CCCCNC(=O)c1cccc(-n2cnc3cccnc32)c1C	inactive: -17.3%	–
Cc1cc(N(C)Cc2ccccc2)n2nc(-c3ccc(C(C)(C)C)cc3)nc2n1	inactive: -9.24%	–
Cc1ccc(-n2nc(C(C)(C)C)cc2NC(=O)Nc2ccc(OCCN3CCOCC3)c3ccccc23)cc1	inactive	–
COc1ccc(OCCn2nnc3sc4c(c3c2=O)CCC(C(C)(C)C)C4)cc1 (stereo not given)	inactive: -2.63%	–

SMILES	activity change, negative = inhibition	Potency
CC1CCN(c2nc3c(-c4cccc(Br)c4)nnn3c3ccccc23)CC1	inactive: -13.2%	–
CCc1ccc(-n2nc3cc(C)c(NC(=O)c4ccccc4C)cc3n2)cc1	inactive: 17.6%	–
CCOc1ccc(-c2c(C)nn3c(C)c(C(=O)NCc4ccc(Cl)cc4)cnc23)cc1OCC	inactive: -16.9%	–
CCC(NC(=O)Nc1cc(Cl)ccc1OC)c1c(-n2cccc2)sc2c1CCN(C)C2 (stereo not given)	inactive: -24.3%	–
CCCCCn1c(=O)[nH]c2cc(C(=O)NCCN(C)CCCC)ccc2c1=O	inactive: -6.17%	–
N=c1n(CCO)c2ccccc2n1Cc1ccccc1F	inactive: -16%	–
O=C(CSc1c2c(nc3ccc(Cl)cc13)CCCC2)NCc1ccccc1Cl	inactive: -5.52%	–
COc1ccc(Br)c(C(=O)Nc2cc3c(cc2N2CCCC2)n(C)c(=O)c(=O)n3C)c1	inactive: -7.83%	–
Cc1ccc(-c2cc(C(=O)OCC(=O)c3ccccc3)c3cccc(Cl)c3n2)cc1	inactive: -4.76%	–
CCC(Sc1nc2ccccc2c2nc(CCn3c(C)nc4ccccc43)nn12)C(=O)Nc1ccc(F)cc1 (stereo not given)	inactive: -21%	–
CNC(=O)c1ccc(C)c(-n2c(C)cc(OCc3ccc(F)cc3F)c(Br)c2=O)c1	inactive: -7.91%	–
Cc1ccc2oc(=O)c3cc(C(=O)N(Cc4ccccc4)C(C)C)sc3c2c1	inactive: -10.7%	–
Cc1ccc(CN2c3ccccc3S(=O)(=O)c3ccccc32)cc1	inactive: -27%	–
Cc1ccc(NC(=O)Cn2c(-c3ccc4c(c3)OCO4)cn(-c3ccccc3)c2=O)cc1	inactive: 19.8%	–
Cc1ccc2c(c1)c1c(c(=O)n(Cc3ccccc3)c(=O)n1CC(=O)Nc1ccccc1C)n2C	inactive: -5.49%	–
COc1ccc(-c2c3c(=O)n(C)c(=O)n(C)c3c3c(-c4ccc(C)cc4)nc4ccccc4n23)cc1	inactive: -5.87% [at 11.5 µM]	–
Cc1ccc(CSc2nc(=O)c3c(n2C)NC(=O)CC3c2ccc(OC(C)C)cc2)cc1 (stereo not given)	inactive: -19.8%	–
CCN1CCC(N(Cc2cccc(OC)c2)C(=O)Nc2ccc(C)cc2Cl)CC1	inactive: -10.9%	–
COc1cc(NC(=O)c2cnn(-c3cccc(F)c3)c2C2CCNCC2)cc(OC)c1OC	inactive: 0.368%	–
CCc1nnc(NC(=O)CSCc2cc(=O)c3ccc(C)cc3[nH]2)s1	inactive: -0.168%	–
Cc1cc(O)c(C(c2ccccc2Cl)N2CCN(c3ccccc3)CC2)c(=O)n1Cc1ccco1 (stereo not given)	inactive: 2.87%	–
Cc1ccc(C)c(NC(=O)CCCn2nc(C)c3sc4ccccc4c3c2=O)c1	inactive: -2%	–
COc1ccc(NC(=O)CN(Cc2ccccc2)S(=O)(=O)c2ccc3nc(C)sc3c2)cc1	inactive: -26.6%	–
